# Source: ChEMBL document CHEMBL4888484, “Replenishing the malaria drug discovery pipeline: Screening and hit evaluation of the MMV Hit Generation Library 1 (HGL1) against asexual blood stage Plasmodium falciparum ,using a nano luciferase reporter read-out” (2022)
# The whole screen tested about 150,000 compounds, of which about 540 (0.36%) showed an effect of 50% or more. Some of the results follow.
# System: Plasmodium falciparum
# Assay: Primary screen in NF54 nanoGlo assay, in single point, at 2uM, 72h; a lower Z score goes with more inhibition
# Type: functional, Erythrocyte
# Settings: timepoint 72 hour
Structure (SMILES),% Inhibition,Z score
COc1cccc(-c2cnn(CC3CC3)c2)c1OC,0%,-0.02
Cn1cc(CNCc2ccc(N3CCCC[C@@H]3CCO)nc2)cn1,-3%,0.49
CC(C)N(CCC(=O)O)Cc1ccccc1F,2%,-0.26
Cn1ncc2c(=O)n(Cc3csc(Cc4ccc(Cl)cc4)n3)nnc21,-5%,1.02
Cc1oc(-c2ccccc2NC(=O)CCOc2ccccc2)nc1CNC(=O)c1cc(C(C)C)n[nH]1,-5%,0.89
CC(C)=CCN1CC2(CCN(C(=O)c3cnccc3C)CC2)CC1=O,-9%,0.85
Cc1ccc(F)cc1NS(=O)(=O)c1cc(-c2ccnn2C(C)C)cs1,-7%,0.85
CN1CCN(C(=O)c2cscc2-c2ccccc2)CC1=O,-12%,1.52
O=C(C[C@H]1CCCN(c2cn[nH]c(=O)c2)C1)Nc1ccc(F)cc1F,-13%,1.65
Cc1ccc(NC(=O)Cc2c(C)noc2C)nc1,1%,-0.16
CCOC(=O)[C@@]1(C(C)C)CCN(C(=O)c2c[nH]nc2C2CC2)C1,3%,-0.36
CN1CCC(n2cnc(-c3ccccc3)c2-c2cccc3cccnc23)CC1,-3%,0.58
Cc1ccsc1[C@@H]1CCCCCN1S(=O)(=O)c1ccc(C(C)C)cc1,-2%,0.49
COc1ccc(CN2CCC(=O)N(CC3CCCCC3)CC2)c(Cl)c1OC,6%,-1.11
Cc1cnccc1NC(=O)N1CC[C@H](CN2CCCCC2)C1,-7%,0.83
CNC(=O)[C@H]1CCN(S(=O)(=O)N(C)Cc2ccccc2)C1,-20%,1.95
CN1CCc2[nH]nc(C(=O)N3CCN(c4ccccn4)CC3)c2C1,-8%,0.77
COCCc1noc(-c2cnc3nc(C)ccc3c2Nc2ccc(C)c(F)c2)n1,-11%,2.03
CCc1nc(C)nc(N2CCN(C[C@H](O)COc3ccccc3C)CC2)c1Cc1cccc(C)c1,36%,-4.89
CCc1nc2ccccc2n1[C@@H](CC)C(=O)NCc1nc(C(N)=O)no1,-10%,1.73
COC(=O)[C@H](C)N1CCC(CN2CCOCC2)CC1,-14%,2.66

Structure (SMILES),% Inhibition,Z score
Cc1nn(C)c(C)c1CCC(=O)N1CC[C@@H]2CN(Cc3ccccc3)[C@@H]2C1,-12%,1.39
COc1cccc(-c2noc(N3CCC[C@H]3C(=O)N(C)C)n2)c1,-2%,0.29
CCn1cc(-c2c(-c3ccccc3)ncn2Cc2sc(COC)nc2C)c(C)n1,-12%,1.15
Cc1ccc(S(=O)(=O)N2C(=O)CC[C@H]2C(=O)O/N=C(\N)c2ccncc2)cc1,-15%,1.96
CC(C)c1nc(C2(NCc3nc(N(C)C)no3)CCCC2)no1,1%,-0.17
CCc1nc(Cn2cc(S(=O)(=O)N(C)C)cn2)cs1,-2%,0.38
COc1cnc(NC(=O)c2ccc(-n3cnnn3)cc2)cn1,-13%,2.24
O=C(N[C@H](CO)Cc1ccccc1)c1ccc(F)cc1-n1cnnn1,-14%,1.8
COc1cc(NC2CCCN(C(=O)C3C4CCCCC43)C2)cc(OC)c1 (configuration not stated),-7%,0.71
Cc1cc(F)ccc1C(=O)NCc1nnc(C)n1C1CC1,-2%,0.34
CNc1ncc(CN(C)C(=O)Nc2cc(NC(=O)COC)ccc2C)cn1,5%,-0.92
Cn1cnc2cc(CNC(=O)c3ccsc3)ccc21,-17%,1.67
Cc1csc(NC(=O)NC2CCCC2n2ccnc2)n1 (configuration not stated),-6%,0.75
COCCN(C)C(=O)c1cnn(-c2ncc3c(n2)-c2ccccc2CCC3)c1COC,-25%,3.28
CCC(C)C(C(=O)Nc1nc(CCC2CCCC2)n[nH]1)n1cnnn1 (configuration not stated),-6%,0.83
C=CCN1CC[C@@]2(CCC1=O)CN(Cc1ccnc3ccccc13)CCN2C,-1%,0.1
CN(C)C[C@]1(O)CCCN(Cc2cnc3c(-c4ccccc4)cnn3c2)C1,-1%,0.28
COc1ccc(S(=O)(=O)N[C@H]2CO[C@@H](CN3CCN(c4cccc(C(F)(F)F)c4)CC3)[C@@H]2O)cc1,-4%,0.56
CCC1Oc2cc(C(C)NCCc3csc(C)n3)ccc2NC1=O (configuration not stated),4%,-0.37
CC(C)(C)C(=O)N1CCC[C@H](Oc2cc(C#N)ccn2)C1,10%,-1.09
